PMC9911399, “Two distinct binding modes provide the RNA-binding protein RbFox with extraordinary sequence specificity”
Positions count from the first letter of the chain named. The list shows a part of the results.

B1: CCAAAUC (DNA:RNA)
RNA: GGGAGACCGGAAUUCAGAUUGUCCCCAAAUCUUAAAUCCCGUCGUAGCCACCA
DNA 1: CAATCTGAATTCCGGTCTCCC
DNA 2: TGGTGGCTACGACGGGATT
B2: AUUACUU (DNA:RNA)
RNA: B1 RNA with C25A, C26U, A27U, A29C, C31U
DNA 1: CAATCTGAATTCCGGTCTCCC
DNA 2: TGGTGGCTACGACGGGATT
B3: CCCAAAU (DNA:RNA)
RNA: B1 RNA with A27C, U30A, C31U
DNA 1: CAATCTGAATTCCGGTCTCCC
DNA 2: TGGTGGCTACGACGGGATT
B4: UAGUUCC (DNA:RNA)
RNA: B1 RNA with C25U, C26A, A27G, A28U, A29U, U30C
DNA 1: CAATCTGAATTCCGGTCTCCC
DNA 2: TGGTGGCTACGACGGGATT
B5: CCAGAAU (DNA:RNA)
RNA: B1 RNA with A28G, U30A, C31U
DNA 1: CAATCTGAATTCCGGTCTCCC
DNA 2: TGGTGGCTACGACGGGATT
B6: GUCAGGC (DNA:RNA)
RNA: B1 RNA with C25G, C26U, A27C, A29G, U30G
DNA 1: CAATCTGAATTCCGGTCTCCC
DNA 2: TGGTGGCTACGACGGGATT
B7: CCAAAAA (DNA:RNA)
RNA: B1 RNA with U30A, C31A
DNA 1: CAATCTGAATTCCGGTCTCCC
DNA 2: TGGTGGCTACGACGGGATT
B8: CCCAUUA (DNA:RNA)
RNA: B1 RNA with A27C, A29U, C31A
DNA 1: CAATCTGAATTCCGGTCTCCC
DNA 2: TGGTGGCTACGACGGGATT
B9: GAGUGCA (DNA:RNA)
RNA: GGGAGACCGGAAUUCAGAUUGUCCGAGUGCAUUAAAUCCCGUCGUAGCCACCA
DNA 1: CAATCTGAATTCCGGTCTCCC
DNA 2: TGGTGGCTACGACGGGATT
B10: AGGUAAU (DNA:RNA)
RNA: B9 RNA with G25A, A26G, G29A, C30A, A31U
DNA 1: CAATCTGAATTCCGGTCTCCC
DNA 2: TGGTGGCTACGACGGGATT
B11: GUCAAAC (DNA:RNA)
RNA: B1 RNA with C25G, C26U, A27C, U30A
DNA 1: CAATCTGAATTCCGGTCTCCC
DNA 2: TGGTGGCTACGACGGGATT
B12: CUAACUA (DNA:RNA)
RNA: B1 RNA with C26U, A29C, C31A
DNA 1: CAATCTGAATTCCGGTCTCCC
DNA 2: TGGTGGCTACGACGGGATT
B13: CCAAGCG (DNA:RNA)
RNA: B1 RNA with A29G, U30C, C31G
DNA 1: CAATCTGAATTCCGGTCTCCC
DNA 2: TGGTGGCTACGACGGGATT
B14: ACAUGUC (DNA:RNA)
RNA: B1 RNA with C25A, A28U, A29G
DNA 1: CAATCTGAATTCCGGTCTCCC
DNA 2: TGGTGGCTACGACGGGATT
B15: CCUUCCU (DNA:RNA)
RNA: B1 RNA with A27U, A28U, A29C, U30C, C31U
DNA 1: CAATCTGAATTCCGGTCTCCC
DNA 2: TGGTGGCTACGACGGGATT
B16: CGCCACG (DNA:RNA)
RNA: B1 RNA with C26G, A27C, A28C, U30C, C31G
DNA 1: CAATCTGAATTCCGGTCTCCC
DNA 2: TGGTGGCTACGACGGGATT
B17: GGUAGCA (DNA:RNA)
RNA: B9 RNA with A26G, G27U, U28A
DNA 1: CAATCTGAATTCCGGTCTCCC
DNA 2: TGGTGGCTACGACGGGATT
B18: AGCAAAC (DNA:RNA)
RNA: B1 RNA with C25A, C26G, A27C, U30A
DNA 1: CAATCTGAATTCCGGTCTCCC
DNA 2: TGGTGGCTACGACGGGATT
B19: CCAGUCU (DNA:RNA)
RNA: B1 RNA with A28G, A29U, U30C, C31U
DNA 1: CAATCTGAATTCCGGTCTCCC
DNA 2: TGGTGGCTACGACGGGATT
B20: GUAGAGU (DNA:RNA)
RNA: B1 RNA with C25G, C26U, A28G, U30G, C31U
DNA 1: CAATCTGAATTCCGGTCTCCC
DNA 2: TGGTGGCTACGACGGGATT

target: T1, RBFOX1 RRM RbFoxmut (Fox-RRM*) (Homo sapiens, UniProt Q9NWB1 109-208, R118D;E147R;N151S;E152T); assay: EMSA; HiTS-Eq, 1 nM pool, 10 min; buffer printed only for the single-RNA assays: 10 mM Tris pH 7.5, 150 mM NaCl, 3.4 mM EDTA, 0.001% NP-40, 30 C; settings: tags: His6 N-terminal (pET28a); label: 5' 32P
T1 sequence: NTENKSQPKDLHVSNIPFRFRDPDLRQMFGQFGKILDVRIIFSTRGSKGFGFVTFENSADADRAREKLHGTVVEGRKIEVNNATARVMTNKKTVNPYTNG
Method in brief: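 These values rest on relative association constants, computed from read-count changes of each RNA species versus the control reaction and normalised to the cognate motif. Reads came from free RNA recovered by 8% native PAGE after purified RbFox RRM (wild type or mutant) at increasing concentrations was equilibrated for 10 min in 50 µL with 1 nM of a 5′-radiolabelled pool with 7 randomized nucleotides and DNA-annealed flanks.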

Binder	binding signal
B1	0.0332 KA relative to UGCAUGU
B2	0.102 KA relative to UGCAUGU
B3	0.0634 KA relative to UGCAUGU
B4	0.0602 KA relative to UGCAUGU
B5	0.0869 KA relative to UGCAUGU
B6	0.1 KA relative to UGCAUGU
B7	0.0575 KA relative to UGCAUGU
B8	0.102 KA relative to UGCAUGU
B9	0.232 KA relative to UGCAUGU
B10	0.11 KA relative to UGCAUGU
B11	0.06 KA relative to UGCAUGU
B12	0.079 KA relative to UGCAUGU
B13	0.122 KA relative to UGCAUGU
B14	0.135 KA relative to UGCAUGU
B15	0.0672 KA relative to UGCAUGU
B16	0.095 KA relative to UGCAUGU
B17	0.127 KA relative to UGCAUGU
B18	0.0613 KA relative to UGCAUGU
B19	0.0598 KA relative to UGCAUGU
B20	0.141 KA relative to UGCAUGU
